Hit rate of the full screen: of about 310,000 compounds, about 2,200 (0.71%) showed an effect of 50% or more. Effects have a minus sign here. The list shows a part of the results.

In this experiment the target is human ether-à-go-go-related gene (hERG) potassium channel (human, UniProt Q12809). The experiment can be described thus: primary screen, population patch clamp on CHO cells stably expressing hERG.
human ether-à-go-go-related gene (hERG) potassium channel, sequence (Q12809 whole entry, looked up): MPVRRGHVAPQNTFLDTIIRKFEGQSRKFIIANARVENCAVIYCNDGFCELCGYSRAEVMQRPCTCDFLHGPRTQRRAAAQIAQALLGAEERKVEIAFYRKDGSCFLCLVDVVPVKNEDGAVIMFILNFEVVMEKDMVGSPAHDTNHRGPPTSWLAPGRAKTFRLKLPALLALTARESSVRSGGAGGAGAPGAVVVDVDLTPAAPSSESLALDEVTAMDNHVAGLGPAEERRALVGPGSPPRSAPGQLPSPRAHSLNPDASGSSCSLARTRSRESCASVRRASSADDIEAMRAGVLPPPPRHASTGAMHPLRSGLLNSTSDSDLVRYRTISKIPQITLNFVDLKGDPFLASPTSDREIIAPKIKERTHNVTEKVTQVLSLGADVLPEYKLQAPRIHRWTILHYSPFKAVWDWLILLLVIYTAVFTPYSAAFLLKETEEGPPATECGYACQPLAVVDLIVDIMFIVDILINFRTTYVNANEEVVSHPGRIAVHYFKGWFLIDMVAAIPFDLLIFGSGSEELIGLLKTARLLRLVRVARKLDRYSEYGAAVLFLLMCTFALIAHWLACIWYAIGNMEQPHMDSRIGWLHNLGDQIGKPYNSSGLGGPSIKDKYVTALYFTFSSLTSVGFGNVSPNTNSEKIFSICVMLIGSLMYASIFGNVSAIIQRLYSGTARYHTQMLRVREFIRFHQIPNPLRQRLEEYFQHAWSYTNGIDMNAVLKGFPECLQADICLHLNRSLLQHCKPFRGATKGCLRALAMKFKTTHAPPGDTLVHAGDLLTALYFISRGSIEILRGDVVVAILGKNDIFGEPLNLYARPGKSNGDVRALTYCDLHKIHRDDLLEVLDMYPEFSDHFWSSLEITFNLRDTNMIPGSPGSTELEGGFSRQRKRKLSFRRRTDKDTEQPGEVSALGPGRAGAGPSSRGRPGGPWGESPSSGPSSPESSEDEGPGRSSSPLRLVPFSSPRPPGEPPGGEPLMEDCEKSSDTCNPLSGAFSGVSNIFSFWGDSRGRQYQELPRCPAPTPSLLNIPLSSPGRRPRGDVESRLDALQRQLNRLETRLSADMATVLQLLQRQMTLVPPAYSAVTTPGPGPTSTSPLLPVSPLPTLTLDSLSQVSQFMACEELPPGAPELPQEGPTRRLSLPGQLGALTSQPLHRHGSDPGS
`C1=C(CCNCc2ccccc2)CCCC1.Cl`: the “hERG current change (%, negative = inhibition) at 1uM” value is on record as 12.4%.

`Cc1ccc(CNc2nc3ccccc3n2C)cc1`: the “hERG current change (%, negative = inhibition) at 1uM” value is given as -1.06%.

With `COc1ccc(NC(=O)C23CC4CC(C2)CC(n2cnc(Br)n2)(C4)C3)c(C)c1`, the “hERG current change (%, negative = inhibition) at 1uM” value was found to be 5.85%.

`CCC(=O)Nc1cc(C(=O)NCC2CCCN2CC)c(OC)cc1N(C)C` (stereo not drawn): the “hERG current change (%, negative = inhibition) at 1uM” value is given as -5.97%.

For the compound `COc1cc(NC(=O)COC(=O)CCc2cc(OC)c(OC)c(OC)c2)cc(OC)c1`, the “hERG current change (%, negative = inhibition) at 1uM” value stood at 9.48%.

As for `CC(=O)Nc1ccc(OC/C=C(\C)Cl)cc1`, the “hERG current change (%, negative = inhibition) at 1uM” value came out at 12.6%.

As for `CN(C)C(CNC(=O)c1cc(Br)ccc1Cl)c1ccco1` (stereo not drawn), the “hERG current change (%, negative = inhibition) at 1uM” value was 12.4%.

Consider `Cc1ccc(OC(F)F)c(NC(=O)Nc2ccc3c(c2)OCO3)c1`, for which the “hERG current change (%, negative = inhibition) at 1uM” value is 19.9%.

Regarding `CN(Cc1ccccn1)C(=O)C1CCC(=O)N(Cc2cccc(F)c2)C1` (stereo not drawn), the “hERG current change (%, negative = inhibition) at 1uM” value turned out to be 8.55%.

In the case of `COc1cccc(NC(=O)c2ccc(NC(=O)C(C)C)cc2)c1`, the “hERG current change (%, negative = inhibition) at 1uM” value came to 6.71%.

`O=C(Nc1ccccc1N1CCOCC1)c1cnccn1`: the “hERG current change (%, negative = inhibition) at 1uM” value is 6.5%.

Take `Cc1cc(C(=O)CN2C(=O)CN(C)C2=O)c(C)n1-c1cccc(S(=O)(=O)N2CCOCC2)c1`: the “hERG current change (%, negative = inhibition) at 1uM” value is -4.32%.

`COc1cccc(/C=C/C(=O)OCC(=O)Nc2cc(C(F)(F)F)ccc2Cl)c1`: the “hERG current change (%, negative = inhibition) at 1uM” value was determined as 8.68%.

Consider `CC(C(=O)c1ccccc1)n1c(N2CCOCC2)nc2c1c(=O)n(C)c(=O)n2C` (stereo not drawn), for which the “hERG current change (%, negative = inhibition) at 1uM” value was determined as 14.4%.

Take `Cc1cc(C=O)c(C)n1C(C)C`: the “hERG current change (%, negative = inhibition) at 1uM” value came to 5.56%.

`COc1ccc(-n2cc(C(=O)Nc3cc([N+](=O)[O-])ccc3OC)c3ccccc3c2=O)cc1`: the “hERG current change (%, negative = inhibition) at 1uM” value came to 7.23%.

Take `COc1ccc(NC(=O)CN(C)S(=O)(=O)c2cnc[nH]2)cc1`: the “hERG current change (%, negative = inhibition) at 1uM” value stood at 16.5%.

For the compound `COC(=O)c1ccc(CNC(=O)c2c3c(nc4ccccc24)CCN(Cc2ccccc2)C3)cc1`, the “hERG current change (%, negative = inhibition) at 1uM” value is listed as 13.6%.

`CN(C)S(=O)(=O)c1ccc(N2CCCC2)c(C(=O)NNC(=O)COc2ccc(Cl)cc2)c1`: the “hERG current change (%, negative = inhibition) at 1uM” value was determined as 2%.

As for `CC(=O)c1cc(C(=O)Nc2ccc3ccccc3c2)c(C)o1`, the “hERG current change (%, negative = inhibition) at 1uM” value amounted to 9.57%.

Take `CCc1nnc(NC(=O)C(CC)c2ccccc2)s1` (stereo not drawn): the “hERG current change (%, negative = inhibition) at 1uM” value turned out to be 13.7%.

As to `O=S(=O)(NC1CC1)c1ccc(S(=O)(=O)N2CCCc3ccccc32)cc1`, the “hERG current change (%, negative = inhibition) at 1uM” value is listed as 6.59%.

`CN(CCCN1CCOCC1)C(=O)c1ccc2nc(Cc3cccc(Cl)c3)oc2c1`: the “hERG current change (%, negative = inhibition) at 1uM” value stood at 8.09%.

Take `Cc1ccc2c(CN3CCN(C(=O)c4ccco4)CC3)cc(=O)oc2c1C`: the “hERG current change (%, negative = inhibition) at 1uM” value is reported as -17.1%.

Turning to `CCSc1nnc(NC(=O)c2csc3c2CCC(C)C3)s1` (stereo not drawn), the “hERG current change (%, negative = inhibition) at 1uM” value is -3.17%.

For the compound `CCN(CC(=O)Nc1ccc2c(c1)OCCO2)Cc1cc(=O)oc2c(C)c(C)ccc12`, the “hERG current change (%, negative = inhibition) at 1uM” value is listed as -16.9%.

Turning to `N#C/C(=C/c1ccc(C(=O)O)cc1)C(=O)Nc1ccccc1`, the “hERG current change (%, negative = inhibition) at 1uM” value amounted to 20.4%.

For `CC(/C=N/n1c(-c2ccccn2)n[nH]c1=S)=C\c1ccccc1`, the “hERG current change (%, negative = inhibition) at 1uM” value turned out to be 6.7%.

On to `CN(C(=O)COC(=O)c1cc([N+](=O)[O-])ccc1N1CCCC1)C1CCS(=O)(=O)C1` (stereo not drawn), for which the “hERG current change (%, negative = inhibition) at 1uM” value was 8.44%.

For `N#Cc1ccc(/C=C\c2nccc3c2[nH]c2ccccc23)cc1`, the “hERG current change (%, negative = inhibition) at 1uM” value is reported as 0.614%.

For `Cc1c(N2C(=O)C3C4C=CC(C5CC45)C3C2=O)c(=O)n(-c2ccccc2)n1C` (stereo not drawn), the “hERG current change (%, negative = inhibition) at 1uM” value is listed as 4.96%.

Regarding `CC(C)c1ccc(N(C(=O)c2cc3ccccc3oc2=O)C2C=CS(=O)(=O)C2)cc1` (stereo not drawn), the “hERG current change (%, negative = inhibition) at 1uM” value is 8.05%.

With `CCN1CCN(C(c2cc3cccc(C)c3[nH]c2=O)c2nnnn2Cc2ccccc2)CC1` (stereo not drawn), the “hERG current change (%, negative = inhibition) at 1uM” value came out at 1.71%.

As for `Cn1c(SCC(=O)NC2CCCCC2)nnc1-c1ccccc1F`, the “hERG current change (%, negative = inhibition) at 1uM” value stood at 14.1%.

As to `CC1CCN(C(=O)c2ccc(S(=O)(=O)N3CCOCC3)cc2)CC1`, the “hERG current change (%, negative = inhibition) at 1uM” value worked out at 12.3%.

For `CCCC(=O)Nc1cc(Cl)ccc1N1CCN(C(=O)CC)CC1`, the “hERG current change (%, negative = inhibition) at 1uM” value came to 3.29%.

Turning to `C=CCNC(=O)c1c(N)n(Cc2ccco2)c2nc3ccccc3nc12`, the “hERG current change (%, negative = inhibition) at 1uM” value is 10.8%.

With `O=C(CCN1C(=O)c2ccccc2C1=O)NC1=NCCS1`, the “hERG current change (%, negative = inhibition) at 1uM” value is 24.5%.

In the case of `Cc1cccc(C)c1OCc1cc(C(=O)NCc2cn(C)nc2C)no1`, the “hERG current change (%, negative = inhibition) at 1uM” value is listed as 1.56%.

Take `COc1cccc(N2CCN(C(=O)c3cc4c(=O)n(Cc5ccccc5)ccc4nc3C)CC2)c1`: the “hERG current change (%, negative = inhibition) at 1uM” value was -5%.

`Cn1c(=O)c(Sc2ccccc2)c(O)c2ccccc21`: the “hERG current change (%, negative = inhibition) at 1uM” value worked out at 13.7%.

As for `CCOC(=O)C1CC(c2ccccc2)=NNC1=O` (stereo not drawn), the “hERG current change (%, negative = inhibition) at 1uM” value was -10.8%.

For the compound `Cc1cc(/C=N/NC(=O)c2cccc([N+](=O)[O-])c2)c(C)n1-c1ccc(Cl)cc1Cl`, the “hERG current change (%, negative = inhibition) at 1uM” value is on record as 8.29%.

With `Cc1cc(C)cc(C(=O)NC(CC(N)=O)c2ccc(NCCN3CCCC3)c([N+](=O)[O-])c2)c1` (stereo not drawn), the “hERG current change (%, negative = inhibition) at 1uM” value amounted to 9.15%.

Turning to `Cc1ccc(-c2csc3nc4ccc(C(=O)NCCO)cc4c(=O)n23)cc1`, the “hERG current change (%, negative = inhibition) at 1uM” value is on record as 8.63%.

`O=C(N/N=C/c1ccc(OCc2ccccc2)cc1)c1ccncc1`: the “hERG current change (%, negative = inhibition) at 1uM” value is on record as 9.85%.

For `COC(=O)c1n[nH]n(-c2cc(Cl)cc(Cl)c2)c1=O`, the “hERG current change (%, negative = inhibition) at 1uM” value came out at 13.8%.

`Cc1nnc(NC(=O)CSc2nnc(Cc3cccn3C)n2-c2cccc(C(F)(F)F)c2)s1`: the “hERG current change (%, negative = inhibition) at 1uM” value is on record as 10.4%.

Consider `CCOc1cc(CNCCc2ccc(S(N)(=O)=O)cc2)ccc1OCc1ccc(Cl)cc1.Cl`, for which the “hERG current change (%, negative = inhibition) at 1uM” value is given as -11.9%.

Consider `Cc1cc(C)cc(C(=O)NC(CC(N)=O)c2ccc(N3CCN(c4ccccn4)CC3)c([N+](=O)[O-])c2)c1` (stereo not drawn), for which the “hERG current change (%, negative = inhibition) at 1uM” value was determined as 12.9%.

With `O=C(c1cc2c(=O)n3ccccc3nc2s1)N1CCN(Cc2ccccc2)CC1`, the “hERG current change (%, negative = inhibition) at 1uM” value was -2.14%.

On to `COc1ccc(/C=C(/NC(=O)c2ccccc2)C(=O)N2CCOCC2)cc1OC`, for which the “hERG current change (%, negative = inhibition) at 1uM” value was determined as 19.1%.

In the case of `Cc1ccc2cc3cc(C(=O)N4CCN(Cc5ccccc5)CC4)sc3nc2c1`, the “hERG current change (%, negative = inhibition) at 1uM” value turned out to be 14.8%.

Regarding `COc1ccc(CNc2nc(NCc3ccc(OC)cc3)n(S(C)(=O)=O)n2)cc1`, the “hERG current change (%, negative = inhibition) at 1uM” value is listed as -1.52%.

These data come from PMC4336329 (PLoS ONE, 2015).
